Test results published in publication PMC10036635, “FTD-tau S320F mutation stabilizes local structure and allosterically promotes amyloid motif-dependent aggregation” (Nature Communications, 2023).

B1: full-length 2N4R S320F tau (natural protein)
chain: not shown
notes: microtubule-associated protein tau, human, 2N4R isoform, FTD-tau mutation S320F; also called FL 2N4R S320F tau; source: E. coli BL21-Gold (DE3), purified (Ni-NTA, HiTrap SP HP, Superdex 200)
B2: full-length 2N4R S320I tau (natural protein)
chain: not shown
notes: microtubule-associated protein tau, human, 2N4R isoform; also called FL 2N4R S320I; source: E. coli BL21-Gold (DE3), purified (Ni-NTA, HiTrap SP HP, Superdex 200)
B3: full-length 2N4R S320V tau (natural protein)
chain: not shown
notes: microtubule-associated protein tau, human, 2N4R isoform; also called FL 2N4R S320V; source: E. coli BL21-Gold (DE3), purified (Ni-NTA, HiTrap SP HP, Superdex 200)
B4: full-length 2N4R S320I_I328V tau (natural protein)
chain: not shown
notes: microtubule-associated protein tau, human, 2N4R isoform; source: E. coli BL21-Gold (DE3), purified (Ni-NTA, HiTrap SP HP, Superdex 200)

Target: the molecule itself
Test: ThT fluorescence aggregation assay + negative-stain TEM; FL 2N4R tau at 40 µM, 2 mM TCEP, 25 µM ThT, 37 °C with intermittent shaking, 2 weeks; endpoint ThT fluorescence and TEM

| Protein | binding result |
| --- | --- |
| B1 | binds |
| B2 | binds |
| B3 | binds |
| B4 | binds |
